In all, about 33,000 sequences were measured (“E-score (-0.5 to 0.5)”: median about -0.016, highest 2% from about 0.31 on). The list shows a part of the results.
biological target: Cst6 (UniProt P40535); assay: PBM E-score (8-mer binding enrichment) (E-score (-0.5 to 0.5)); higher = stronger / more preferred TF binding; most listed sequences are background and not binding sites; conditions: protein concentration: 200 nM; construct: GST-DNA-binding domain
Method in brief: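 GST-tagged yeast TFs (full-length or DNA-binding domain) were made by PURExpress in vitro transcription/translation and applied at about 100-200 nM to universal all-10-mer Agilent arrays. The arrays were made double-stranded by primer extension, on fresh or once-stripped slides. Bound protein was detected with fluorescent anti-GST, and scans were normalised with masliner. Each ungapped eight-base word, pooled with its reverse complement, received an E-score (modified Wilcoxon-Mann-Whitney statistic) from the Universal PBM Analysis Suite.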

Row | Sequence | PBM E-score
1 | AGCATACA | 0.165
2 | GTTTCGGA | 0.0663
3 | GGTAGCAC | -0.266
4 | AGGCCGTG | 0.0348
5 | AAGTAATT | 0.22
6 | ATTATTTC | 0.251
7 | CCTCCCAG | -0.212
8 | CACAACGC | 0.119
9 | ATCCTTGA | -0.0599
10 | CGAGATGC | -0.116
11 | GGGACCCA | -0.238
12 | ACCCTCAA | -0.237
13 | AATTTCCG | 0.112
14 | ATATCAGG | 0.106
15 | ATTTCAAA | 0.211
16 | CACGCGCA | -0.0519
17 | AATAGCTG | 0.0474
18 | GGTGGGAA | -0.146
19 | CCTCCGCC | -0.216
20 | AGTAGGCG | 0.0103
21 | CTATAGTA | -0.0525
22 | CAACTCGA | -0.0544
23 | ACGACTGA | -0.107
24 | CGCCATGA | 0.0827
25 | TACTGTAA | 0.0263

Row | Sequence | PBM E-score
26 | ATTGTCTC | -0.00153
27 | TGAAACCA | -0.0373
28 | AATAAGTA | 0.215
29 | AGATTTGA | 0.137
30 | GCGCCCTA | -0.0411
31 | ATCTTTCA | 0.155
32 | AGTCTTGC | -0.0228
33 | AGTCCAAC | -0.275
34 | GGGGTTCA | -0.296
35 | ACAAGCAC | -0.0185
36 | GTGTACGA | -0.0474
37 | AAAAAGTG | 0.242
38 | CCGGTCGC | -0.143
39 | GCCCAGAC | -0.395
40 | CCTGAAAA | 0.0412
41 | ATAGTGAT | 0.253
42 | ACTCTTAC | 0.134
43 | AAGTGTAG | 0.00605
44 | CGGTCCGA | -0.171
45 | TAGAAAGA | -0.0936
46 | AATAGGAG | -0.122
47 | GACGCAGC | 0.169
48 | AGAAGCGC | 0.151
49 | AATTGAAG | 0.0234
50 | ACTAGGAG | -0.234

Row | Sequence | PBM E-score
51 | GCCGTGGA | 0.105
52 | CGACACTA | -0.0515
53 | AGAACAAC | 0.034
54 | CATTTATA | 0.226
55 | CTGGTTCA | -0.191
56 | AAGCCCTT | -0.189
57 | CATACCCA | -0.0162
58 | AGGGGACG | -0.197
59 | CACACGCG | 0.0985
60 | CCGGACGA | -0.261
61 | CCTTCAGA | -0.156
62 | AGACCGGG | -0.298
63 | CTCGAATC | -0.22
64 | CCCGGGCA | -0.142
65 | AGCGCTAG | -0.149
66 | CTACCTCA | -0.0239
67 | CATGTCCG | -0.219
68 | ACGCAAGG | 0.212
69 | AGGGTTGA | -0.108
70 | AAATCCTT | 0.0381
71 | CACCGGTC | -0.339
72 | CAGTAGGA | -0.163
73 | TACCGGCA | -0.0244
74 | ATAACAGA | 0.204
75 | ACCGACTG | -0.145

Row | Sequence | PBM E-score
76 | AACAAAAC | 0.198
77 | CCCGTTCC | -0.132
78 | AAACTTAA | 0.224
79 | AGTTAGGG | -0.234
80 | ATTACGAC | 0.294
81 | GAGTCCCA | -0.141
82 | CTACATTA | 0.0261
83 | CACAAACA | 0.091
84 | AGAACACC | -0.0606
85 | CCATTAGA | -0.271
86 | ATCTAATG | 0.0674
87 | ACACAAGA | 0.128
88 | GAGATTCC | -0.0509
89 | AATCTTCC | -0.187
90 | ATGTTAGG | 0.041
91 | AGAAGTCT | -0.118
92 | ATACAGCA | -0.0259
93 | TACTTGGA | 0.186
94 | GTGACGGA | 0.352
95 | CAGCCGGG | -0.229
96 | TATGTTAA | 0.162
97 | GGCCCTGA | -0.208
98 | CGCGACTA | -0.0629
99 | AAAAGACT | -0.128
100 | AATGTCAT | 0.356

Row | Sequence | PBM E-score
101 | GACGAGAC | -0.0666
102 | CGCTCTAA | 0.0533
103 | TAGAGTCA | -0.2
104 | ATGCTCCC | -0.354
105 | GTTTTCCA | 0.185
106 | ATCGGACG | -0.186
107 | GGTGAAGA | -0.0221
108 | ACTAGCGG | -0.166
109 | CAAGGAAA | 0.0274
110 | CGAGGGGC | -0.228
111 | CCCACTCG | -0.365
112 | ATTAGTTC | 0.155
113 | ACCTTTCC | -0.205
114 | TAGGGCCA | -0.152
115 | AAAAGTTG | 0.0259
116 | TAGGCTGA | -0.0803
117 | CGCCAATC | 0.0649
118 | ACCGTCAG | -0.0719
119 | CAAACTCA | 0.0635
120 | CGCAGGAC | -0.166
121 | CATATATG | 0.341
122 | ACTTCTTC | 0.111
123 | TCAGAAAA | 0.105
124 | AAGGTCAC | -0.101
125 | CCTGCTGA | 0.0736

Row | Sequence | PBM E-score
126 | CCCCTCTA | -0.297
127 | AACTACAG | -0.121
128 | GAGCAAGC | -0.227
129 | AGGGGGAA | -0.24
130 | AATCTAGT | 0.137
131 | CCGAACAA | -0.0345
132 | AAGGTTGA | 0.0598
133 | CTCAGCAG | -0.203
134 | CGTTCACA | 0.0373
135 | CACCAGGA | 0.016
136 | TACGGTGA | 0.166
137 | GCCAGGGC | -0.275
138 | CTCTGCCC | -0.178
139 | AAGGACTA | -0.115
140 | AGCGGGCC | -0.0486
141 | CGCCCTCC | -0.22
142 | ATTCAGGG | -0.0542
143 | CGCATTGA | 0.223
144 | CTCTGAAC | -0.17
145 | CGGATGAC | 0.321
146 | CGCTTGAC | -0.0844
147 | CGTATTAC | 0.194
148 | GACCCTAA | -0.095
149 | GAGTTTAA | 0.157
150 | CCACTCGC | -0.189

Row | Sequence | PBM E-score
151 | CAGTCGGG | -0.122
152 | TACGCACA | 0.117
153 | CGCTGGGC | -0.2
154 | ACAAATAA | 0.278
155 | CGATCGCA | 0.141
156 | AGGTCCGC | -0.32
157 | AAAGCTAA | 0.0854
158 | GGACCTGA | -0.162
159 | ATGCAGGG | -0.136
160 | GCTATCAC | -0.059
161 | GTACGCGA | 0.0765
162 | TGGCCACA | -0.0413
163 | ACAAATTG | 0.0939
164 | ATATCCGG | -0.158
165 | CCTGGTTA | -0.0917
166 | TCTCAGCA | -0.138
167 | TATTCGGA | 0.138
168 | GAACCGGA | -0.111
169 | CGACCGAC | -0.00451
170 | TGGGCGAA | -0.132
171 | AGGATGCA | -0.0624
172 | ATCCGTTA | 0.292
173 | AGTAATCA | 0.116
174 | CAAAGACA | 0.144
175 | ACGTCCTA | 0.0158

Row | Sequence | PBM E-score
176 | GAACGCAC | 0.0723
177 | AAGGACTC | -0.228
178 | AAACGTAG | -0.0946
179 | AACAGTTG | -0.0544
180 | ATTAGCGC | 0.118
181 | ACCCGCCT | -0.188
182 | ATCCACTC | 0.0244
183 | TCGAGCCA | -0.0851
184 | ACCTTTTG | -0.203
185 | CTCCAGTC | -0.133
186 | CGGAAACG | -0.0295
187 | AGTGAGGG | -0.256
188 | ACGGCATA | 0.245
189 | AATCTCGC | 0.176
190 | AAGCACAA | 0.149
191 | CAGCATTA | 0.0701
192 | CTAGCCAG | -0.212
193 | GGCTATAC | -0.171
194 | AACTTTTG | 0.111
195 | ACCTAACT | 0.125
196 | GAATCCGA | -0.0559
197 | GATGTGGA | 0.0375
198 | AGGTGAAC | -0.114
199 | CTTCGTAC | -0.193
200 | GACCCCCA | -0.47

Row | Sequence | PBM E-score
201 | CCTCAACG | -0.102
202 | ATCATTCC | 0.0946
203 | CTACAAAC | 0.0213
204 | CAAACATA | -0.07
205 | ATGTTCGG | -0.06
206 | ACGTGATC | 0.164
207 | CTATACTA | 0.0578
208 | AGACCAAA | -0.0563
209 | GCAATTAA | 0.145
210 | AAGGAGAG | -0.258
211 | AGAACAGC | -0.00087
212 | ATCATAGC | 0.232
213 | GAACTACC | -0.157
214 | GAACACGC | 0.0457
215 | CTGCTGAC | 0.056
216 | CTAATCTA | -0.0326
217 | GTCCTAGA | -0.246
218 | AAACCATG | -0.0483
219 | TGACGTCA | 0.5
